The target in one assay is T1, YFP-IL1RAPL1 (mouse) (UniProt P59823).
T1 sequence: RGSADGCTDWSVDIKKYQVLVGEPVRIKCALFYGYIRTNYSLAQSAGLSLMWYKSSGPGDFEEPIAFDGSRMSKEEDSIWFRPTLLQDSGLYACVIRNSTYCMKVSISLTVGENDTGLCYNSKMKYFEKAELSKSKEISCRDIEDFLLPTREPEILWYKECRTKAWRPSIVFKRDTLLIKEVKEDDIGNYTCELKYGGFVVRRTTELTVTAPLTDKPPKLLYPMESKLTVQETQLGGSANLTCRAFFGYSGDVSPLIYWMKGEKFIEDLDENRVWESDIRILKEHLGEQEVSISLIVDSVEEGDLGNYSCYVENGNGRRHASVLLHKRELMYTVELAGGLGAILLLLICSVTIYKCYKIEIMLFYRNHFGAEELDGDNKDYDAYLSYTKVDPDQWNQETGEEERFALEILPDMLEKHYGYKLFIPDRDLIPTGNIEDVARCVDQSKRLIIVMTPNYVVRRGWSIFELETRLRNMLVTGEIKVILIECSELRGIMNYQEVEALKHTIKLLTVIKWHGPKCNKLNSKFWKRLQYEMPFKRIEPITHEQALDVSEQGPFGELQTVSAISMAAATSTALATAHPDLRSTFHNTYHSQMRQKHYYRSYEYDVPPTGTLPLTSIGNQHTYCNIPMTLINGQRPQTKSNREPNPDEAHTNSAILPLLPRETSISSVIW
Put plainly: co-IP; HEK 293T cells co-transfected; lysed in TNE buffer (50 mM Tris-HCl pH 7.5, 1% Nonidet P-40, 150 mM NaCl, 5 mM EDTA); immunoprecipitation with anti-GFP or anti-FLAG antibody, western blotting with anti-FLAG or anti-Myc antibody. A general note: A western blot detects proteins with antibodies after separation by electrophoresis.

Chains of the proteins cited; added tags and fusions are not shown.
UniProt P16054: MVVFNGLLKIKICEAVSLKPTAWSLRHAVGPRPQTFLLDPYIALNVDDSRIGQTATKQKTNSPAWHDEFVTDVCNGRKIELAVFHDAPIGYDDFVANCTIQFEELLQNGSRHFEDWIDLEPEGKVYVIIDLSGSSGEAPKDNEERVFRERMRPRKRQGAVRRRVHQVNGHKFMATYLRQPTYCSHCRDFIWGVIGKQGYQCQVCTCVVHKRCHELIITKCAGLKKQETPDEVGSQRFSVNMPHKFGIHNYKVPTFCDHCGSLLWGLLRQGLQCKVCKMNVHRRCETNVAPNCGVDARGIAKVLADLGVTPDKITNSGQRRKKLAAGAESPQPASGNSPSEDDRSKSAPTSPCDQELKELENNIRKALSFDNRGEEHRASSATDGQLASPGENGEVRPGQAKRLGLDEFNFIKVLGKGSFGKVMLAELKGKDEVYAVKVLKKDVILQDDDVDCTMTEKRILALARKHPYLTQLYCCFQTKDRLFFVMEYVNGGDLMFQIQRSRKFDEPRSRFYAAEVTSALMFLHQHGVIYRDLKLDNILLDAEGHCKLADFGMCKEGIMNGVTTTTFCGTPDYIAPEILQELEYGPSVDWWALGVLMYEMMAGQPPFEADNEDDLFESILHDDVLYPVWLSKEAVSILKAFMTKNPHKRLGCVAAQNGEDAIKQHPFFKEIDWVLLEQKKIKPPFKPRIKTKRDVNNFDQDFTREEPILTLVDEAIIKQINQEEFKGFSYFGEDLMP

The target of assay [1] is T2, MBP-fusion protein with the TIR domain of IL1RAPL1 (mouse) (UniProt P59823).
T2 sequence: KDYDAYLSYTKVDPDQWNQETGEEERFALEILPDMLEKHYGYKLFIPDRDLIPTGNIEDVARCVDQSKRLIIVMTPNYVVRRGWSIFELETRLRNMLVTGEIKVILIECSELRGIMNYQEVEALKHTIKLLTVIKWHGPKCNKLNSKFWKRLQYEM
Put plainly: pull-down; lysates of transfected HEK 293T cells incubated with amylose resins coupled to purified MBP-fusion proteins of IL1RAPL1 domains; immunoblotting with anti-FLAG or anti-Myc antibody; only the target purified.

The target of a further assay is T3, FLAG-IL1RAPL1 (mouse) (UniProt P59823).
T3 sequence: T1 sequence
Nature of the assay: co-IP; HEK 293T cells co-transfected; lysed in TNE buffer (50 mM Tris-HCl pH 7.5, 1% Nonidet P-40, 150 mM NaCl, 5 mM EDTA); immunoprecipitation with anti-GFP or anti-FLAG antibody, western blotting with anti-FLAG or anti-Myc antibody.

These are yes or no findings as the source states them, for the method shown. In cells and extracts the contact can be indirect. Some binding calls cover weakened binding; strength is not graded here. Sequences can lack the tags named with a protein.

As for “FLAG-PKCε (from UniProt P16054 1-737) (enzyme)”, the binding entry (with YFP-IL1RAPL1 (mouse); in assay [1]) was “binds” throughout.

B1: FLAG-Rasal1 (protein, UniProt Q9Z268 1-799)
chain: MAKSGSLSIRVVEGRALPAKDVSGSSDPYCLVKVDDQVVARTATIWRSLSPFWGEEYTVHLPLDFHHLAFYVLDEDTVGHDDIIGKISLSKEAITADPRGIDSWINLSRVDPDAEVQGEVCLDVKLLEDARGRCLRCHVRQARDLAPRDISGTSDPFARVFWGNHSLETSTIKKTRFPHWDEVLELREAPGTTSPLRVELWDWDMVGKNDFLGMVEFTPQTLQQKPPNGWFRLLPFPRAEDSGGSLGALRLKVRLTEDRVLPSQYYQPLMELLLESVQGPAEEDTTSPLALLEELASGDCRQDLATKLVKLFLGRGLAGPFLDYLTRREVARTNDPNTLFRSNSLASKSMEQFMKLVGMRYLHEVLRPVISRVFEEKKYMELDPCKMDLNRSRRISFKGTPTEEQVRETSLGLLTGYLGSVVDAIVSSTGRCPLALRLAFKQLQRCVEKRFSGIEHQDVKYLAISGFLFLRFFAPAILTPKLFDLRDQHADPQTSRSLLLLAKAVQSIGNLGQQLGQGKEQWLAPLHPFLLQSISRVRDFLDQLVDVDEDEEAGGPACALVQPSTIVREGFLLKRKEEPGGLATRFAFKKRYFRLSGRDLSYSKTPEWQVHTSIPLSCIRAVEHVDEGAFQLPHVMQVVTQDGAGTSHTTYLQCKNVNDLNQWLSALRKASAPNPGKLVACHPGAFRSGRWTCCLQAERSAAGCSRTHSAITLGDWSDPLDPDAEAQAVYRQLLLGRDQLRLKLLEDSSLDTEVDPGRDSSATDGPCAEVLAQQRAATTHLLQVLEDLEQAHEEFQKRG
For the molecule B1, the binding result with YFP-IL1RAPL1 (mouse) is reported as “binds”.

B2: FLAG-Snap91 (protein, UniProt Q61548 1-901)
chain: MSGQTLTDRIAAAQYSVTGSAVARAVCKATTHEVMGPKKKHLDYLIQATNETNVNIPQMADTLFERATNSSWVVVFKALVTTHHLMVHGNERFIQYLASRNTLFNLSNFLDKSGSHGYDMSTFIRRYSRYLNEKAFSYRQMAFDFARVKKGADGVMRTMVPEKLLKSMPILQGQIDALLEFDVHPNELTNGVINAAFMLLFKDLIKLFACYNDGVINLLEKFFEMKKGQCKDALEIYKRFLTRMTRVSEFLKVAEQVGIDKGDIPDLTQAPSSLMETLEQHLNTLEGKKPGNNEGSGAPSPLSKSSPATTVTSPNSTPAKTIDTSPPVDIFATASAAAPVSSAKPSSDLLDLQPDFSGAAAGAAAPVVPPSGGATAWGDLLGEDSLAALSSVPCEAPISDPFAPEPSPPTTTTEPASASASTTTAVTAVTTEVDLFGDAFAASPGEAPAASEGATAPATPAPVAAALDACSGNDPFAPSEGSAEAAPELDLFAMKPPETSAPVVTPTASTAPPVPATAPSPAPTAVAATAATTTAAAAATTTATTSAAAATTAAAPPALDIFGDLFDSAPEVAAAPKPDAAPSIDLFGTDAFSSPPRGASPVPESSLTADLLSVDAFAAPSPASTASPAKAESSGVIDLFGDAFGSGASETQPAPQAVSSSSASADLLAGFGGSFMAPSTTPVTPAQNNLLQPSFEAAFGTTPSTSSSSSFDPSVFDGLGDLLMPTMAPSGQPAPVSMVPPSPAMAASKGLGSDLDSSLASLVGNLGISGTTSKKGDLQWNAGEKKLTGGANWQPKVTPATWSAGVPPQGTVPPTSSVPPGAGAPSVGQPGAGFGMPPSGTGMTMMSQQPVMFAQPMMRPPFGAAAVPGTQLSPSPTPATQSPKKPPAKDPLADLNIKDFL
In the case of B2, the binding entry with YFP-IL1RAPL1 (mouse) was “no binding”.

B3: myc-PLCβ1 (enzyme, UniProt Q9Z1B3 1-1216)
chain: MAGAQPGVHALQLKPVCVSDSLKKGTKFVKWDDDSTIVTPIILRTDPQGFFFYWTDQNKETELLDLSLVKDARCGKHAKAPKDPKLRELLDVGNIGHLEQRMITVVYGPDLVNISHLNLVAFQEEVAKEWTNEVFSLATNLLAQNMSRDAFLEKAYTKLKLQVTPEGRIPLKNIYRLFSADRKRVETALEACSLPSSRNDSIPQEDFTPDVYRVFLNNLCPRPEIDNIFSEFGAKSKPYLTVDQMMDFINLKQRDPRLNEILYPPLKQEQVQVLIEKYEPNSSLAKKGQMSVDGFMRYLSGEENGVVSPEKLDLNEDMSQPLSHYFINSSHNTYLTAGQLAGNSSVEMYRQVLLSGCRCVELDCWKGRTAEEEPVITHGFTMTTEISFKEVIEAIAECAFKTSPFPILLSFENHVDSPKQQAKMAEYCRLIFGDALLMEPLEKYPLESGVPLPSPMDLMYKILVKNKKKSHKSSEGSGKKKLSEQASNTYSDSSSVFEPSSPGAGEADTESDDDDDDDDCKKSSMDEGTAGSEAMATEEMSNLVNYIQPVKFESFEISKKRNKSFEMSSFVETKGLEQLTKSPVEFVEYNKMQLSRIYPKGTRVDSSNYMPQLFWNAGCQMVALNFQTVDLAMQINMGMYEYNGKSGYRLKPEFMRRPDKHFDPFTEGIVDGIVANTLSVKIISGQFLSDKKVGTYVEVDMFGLPVDTRRKAFKTKTSQGNAVNPVWEEEPIVFKKVVLPSLACLRIAAYEEGGKFIGHRILPVQAIRPGYHYICLRNERNQPLTLPAVFVYIEVKDYVPDTYADVIEALSNPIRYVNLMEQRAKQLAALTLEDEEEVKKEADPGETSSEAPSETRTTPAENGVNHTASLAPKPPSQAPHSQPAPGSVKAPAKTEDLIQSVLTEVEAQTIEELKQQKSFVKLQKKHYKEMKDLVKRHHKKTTELIKEHTTKYNEIQNDYLRRRAALEKSAKKDSKKKSEPSSPDHGSSAIEQDLAALDAEMTQKLIDLKDKQQQQLLNLRQEQYYSEKYQKREHIKLLIQKLTDVAEECQNNQLKKLKEICEKEKKELKKKMDKKRQEKITEAKSKDKSQMEEEKTEMIRSYIQEVVQYIKRLEEAQSKRQEKLVEKHNEIRQQILDEKPKLQTELEQEYQDKFKRLPLEILEFVQEAMKGKISEDSNHGSAPPSLASDAAKVNLKSPSSEEIERENPGREFDTPL
In the case of B3, the binding entry with FLAG-IL1RAPL1 (mouse) was “binds”.

B4: myc-SNIP (protein, UniProt Q9QWI6 1-1250)
chain: MQPWQCLRRFALAWWERTAEGRARSPREEVGPRDPGGRGEPDPERSSPPMLSADDAEYPREYRTLGGGGGGGSGGRRFSNVGLVHTSERRHTVIAAQSLEALSGLQKADADRKRDAFMDHLKSKYPQHALALRGQQDRMREQVGGWTVDPVCLLSSLCSHLHGDSTPSGAGQPAQQPNYWSFKTRSSRHTQGAQPGLADQAAKLSYASAESLETMSEAELPLGFSRMNRFRQSLPLSRSASQTKLRSPGVLFLQFGEETRRVHITHEVSSLDTLHALIAHMFPQKLTMGMLKSPNTAILIKDEARNVFYELEDVRDIQDRSIIKIYRKEPLYAAFPGSHLTNGDLRREMVYASRESSPTRRLNNLSPASHLASSSPPPGLPSGLPSGLPSGSPSRSRLSYAGGRPPSYAGSPVHHAAERLGGAPTGQGVSPSPSAILERRDVKPDEDLAGKAGGMVLVKGEGLYADPYGLLHEGRLSLAAAAETHSHTRARAACTSGVPCALSAPTPLPRCSPTWRTRCTRRALAALYGDGYGFRLPPSSPQKLADVSAPSGGPPPPHSPYSGPPSRGSPVRQSFRKDSGSSSVFAESPGGKARSTGSASTAGAPPSELFPGPGERSLVGFGPPVPAKDTETRERMEAMEKQIASLTGLVQSALLRGSEPETPSEKVEGSNGAATPSAPVCGSGSKSSGATPVSGPPPPSASSTPAGQPTAVSRLQMQLHLRGLQNSASDLRGQLQQLRNVQLQNQESVRALLKPTEADVSMRVSEAARRQEDPLQRQRTLVEEERLRYLNDEELITQQLNDLEKSVEKIQRDVAHNHRLMPGPELEEKALVLKQLGETLTELKAHFPGLQSKMRVVLRVEVEAVKFLKEEPQRLDGLLKRCRGVTDTLAQIRRQVDEGMWPPPNNLLNQSPKKVAAETDFSKGLDFEIPPPSPPLNLHELSGPAEGTPLTPKSTNPTKCLDASSKRNTDKAVSVEAAERDWEEKRAALTQYSAKDINRLLEETQAELLKAIPDLDCASKTHPGPAPTPDHKPPKAPHGQKAAPRTEPSGRRGSDELTVPRYRTEKPSKSPPPPPPRRSFPSSHGLTTTRTGEVVVTSKKDSVFIKKAESEELEVQKPQVKLRRAVSEVVRPASTPPIMASAIKDEDDEERIIAELESGGSSVPPMKVVTPGASRLKAAQGPAGSPDKGKHGKQRTEYMRIQAQQQATKPSKEVSGPNETSSPGSEKPSGSRTSIPVLTSFGARNSSISF
For the molecule B4, in the assay with FLAG-IL1RAPL1 (mouse), the binding entry was “binds”.

(Values after PMC3681934.)
